# PubChem BioAssay AID1030 (National Center for Advancing Translational Sciences (NCATS), 2008)
# Among all 220,000 compounds or so, about 16,000 (7.3%) were called active. The inconclusive results got no clear call from the source; some entries with a clear call stand among them for comparison. The call rests on the fitted dose curve; in most records, active means well fitted inhibition curve with a large enough effect (not every such curve was filed as active); inconclusive means small, poorly fitted or top-dose-only effect, or another doubt; inactive means no such curve, though single readings can be large or run the other way. Potencies of inconclusive entries are left out as doubtful fits.
# Molecular target: Aldehyde dehydrogenase 1A1 (Homo sapiens) (UniProt P00352)
# UniProt P00352, sequence (P00352 whole entry, looked up): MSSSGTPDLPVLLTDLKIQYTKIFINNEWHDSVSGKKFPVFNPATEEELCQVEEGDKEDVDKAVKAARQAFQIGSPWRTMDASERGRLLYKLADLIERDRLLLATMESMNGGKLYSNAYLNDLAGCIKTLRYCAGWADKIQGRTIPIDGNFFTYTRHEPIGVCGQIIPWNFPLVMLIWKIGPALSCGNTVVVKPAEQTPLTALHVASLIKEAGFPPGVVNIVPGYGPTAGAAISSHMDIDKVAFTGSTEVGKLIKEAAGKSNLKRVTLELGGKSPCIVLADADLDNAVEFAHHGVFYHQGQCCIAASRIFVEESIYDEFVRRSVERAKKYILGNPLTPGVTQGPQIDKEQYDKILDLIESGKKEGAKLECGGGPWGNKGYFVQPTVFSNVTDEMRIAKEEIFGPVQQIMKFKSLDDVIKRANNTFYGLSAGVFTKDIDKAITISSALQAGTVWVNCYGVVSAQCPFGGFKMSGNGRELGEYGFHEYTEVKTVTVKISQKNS
# Assay: qHTS Assay for Inhibitors of Aldehyde Dehydrogenase 1 (ALDH1A1);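 on activity, negative = inhibition: plate controls were no enzyme wells and a reference inhibitor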
# Settings: Purified ALDH1A1, NADH fluorescence, propionaldehyde substrate; series mostly up to 75.3 µM; activity, negative = inhibition: at the top concentration
# Potency means the concentration at half of the fitted maximal effect; tags describe the fitted curve by direction and shape.
Compound,"activity, negative = inhibition",Potency
CN(Cc1cccnc1)C(=O)CC1C(=O)NCCN1CC(c1ccccc1)c1ccccc1 (stereo not drawn),inactive: -11.4%,–
CN1C=CC=C/C1=C1\SC(=S)N(Cc2ccccc2)C1=O,–,active: 12.6 µM
COc1cc(NC(=S)NC(=O)c2cc(C)cc(C)c2)ccc1NC(=O)c1cccs1,–,active: 14.1 µM
COc1cc(NC(=O)Cc2cccs2)ccc1-n1cnnn1,–,"inconclusive [inhibitor, single point]"
Nc1ccc(Oc2ccc3c(c2)C(=O)N(CC2CCCO2)C3=O)cc1 (stereo not drawn),–,active: 28.2 µM
CCOC(=O)C1CCN(S(=O)(=O)c2cccc3nonc23)CC1,–,"inconclusive [inhibitor, single point]"
CC(NC(=O)C1(S(=O)(=O)c2ccc(Cl)cc2)CC1)c1ccccc1 (stereo not drawn),–,"inconclusive [inhibitor, single point]"
O=C1OC2(c3ccc(O)cc3Oc3cc(O)ccc32)c2c1c(-c1ccccc1)c(-c1ccccc1)c(-c1ccccc1)c2-c1ccccc1,–,"inconclusive [inhibitor, partial curve]"
Cc1nn(Cc2ccc(Cl)cc2)c(C)c1NC(=O)CSc1nc2c(c(C(F)(F)F)n1)CCc1ccccc1-2,inactive: 8.7%,–
Cn1c(SCC(=O)c2ccccc2)nnc1-c1ccco1,–,"inconclusive [inhibitor, single point]"
CN(C)CCCNC(=O)C1CCNCC1,inactive: -4.86%,–
Cc1ccc(C(=O)c2coc3ccc(O)c(Cl)c23)cc1,inactive: 13.4%,–
CC1(C)Cc2nc3sc(C(=O)O)c(N)c3cc2CS1,inactive: -10.9%,–
CCOC(=O)/C(=N\Nc1ccccc1)c1csc(Nc2ccc(C)cc2)n1,inactive: -0.32%,–
COCCCn1cc(C(=O)c2cc(Br)ccc2O)cc(C#N)c1=O,–,"inconclusive [inhibitor, single point]"
COc1ccc(CCn2c(=N)c(C(=O)NCc3ccco3)cc3c(=O)n4ccccc4nc32)cc1,–,"inconclusive [inhibitor, single point]"
Cc1nnc(SCC(=O)NC2CCCCC2C)s1 (stereo not drawn),inactive: 3.87%,–
CN1C(=O)C(=C2CCCCCC2)SC1=S,–,"inconclusive [inhibitor, single point]"
COc1ccc(C2C(C#N)=C(N)Oc3cc4c(cc32)OCO4)cc1 (stereo not drawn),–,"inconclusive [inhibitor, partial curve]"
CSc1cccc(NC(=S)N2CCCN(Cc3ccccc3F)C2)c1,–,"inconclusive [inhibitor, single point]"
COc1ccc(/C=N/NC(=O)c2cccc(NC(=O)c3ccccc3Cl)c2)cc1OC,–,active: 3.98 µM
COc1ccc2oc(C(=O)OCC(=O)NC(=O)NC(C)C)c(C)c2c1,–,"inconclusive [inhibitor, single point]"
O=c1cc(CSc2nnnn2-c2ccccc2)nc2nc[nH]n12,–,"inconclusive [inhibitor, single point]"
Oc1ccccc1Cn1c(-c2ccccc2O)nc2ccccc21,–,"inconclusive [inhibitor, single point]"

Compound,"activity, negative = inhibition",Potency
CNC(=O)c1nc(C)n(-c2ccc([N+](=O)[O-])cc2)n1,inactive: -1.11%,–
CC1CCN(C(=O)c2cc(-c3ccc(Cl)c(Cl)c3)on2)CC1,–,"inconclusive [inhibitor, partial curve]"
CSc1ccc(CN2C(=O)NC3(CCCCCC3)C2=O)cc1,–,"inconclusive [inhibitor, single point]"
C=CCn1c(SCc2cc(=O)n3ccsc3n2)nc2cc(Cl)ccc2c1=O,–,"inconclusive [inhibitor, single point]"
COc1ccc(OCCSc2n[nH]c(N)n2)cc1,–,"inconclusive [inhibitor, single point]"
C=CCSc1nnc(-c2cc3c(-c4ccccc4)nn(C)c3s2)n1C,–,"inconclusive [inhibitor, single point]"
CC1(C)CC(CC(=O)Nc2nccs2)(c2ccccc2)CCO1 (stereo not drawn),inactive: 13.7%,–
Cc1ccc2oc3nc(C)c(C(=O)Nc4cccc(C(F)(F)F)c4)cc3c(=O)c2c1,inactive: 0.49%,–
CCOC(=O)c1nccnc1C(=O)Nc1ccc(C(F)(F)F)cc1,inactive: 1.71%,–
CCCc1cc(=O)oc2cc(C)c3c(C)coc3c12,–,"inconclusive [inhibitor, partial curve]"
CCOc1ccc2oc(-c3ccccc3)c(C(=O)N3CCN(C)CC3)c2c1,–,"inconclusive [inhibitor, partial curve]"
O=C(NCCNC1CCN(Cc2ccccc2)CC1)c1cccs1,–,"inconclusive [inhibitor, single point]"
CCCCn1c(SCC2CCCO2)nc2cc(S(N)(=O)=O)ccc21 (stereo not drawn),inactive: -4.04%,–
O=C(NCc1cccnc1)C(=O)NCC1OCCCN1S(=O)(=O)c1ccccc1 (stereo not drawn),–,"inconclusive [inhibitor, single point]"
COc1ccccc1CNC(=O)C1CCN(C(=O)NC2CCCCC2)CC1,inactive: -0.823%,–
CCCCn1nc2cc(C(=O)NCc3ccc(OC)cc3)ccc2c1OCC,–,"inconclusive [inhibitor, partial curve]"
Cc1ccc(S(=O)(=O)c2nc(C)c3c(n2)CCC3)cc1,–,"inconclusive [inhibitor, single point]"
CCCC(=O)Nc1nc2ccc3nc(C)sc3c2s1,–,"inconclusive [inhibitor, single point]"
Cc1cccc(NC(=O)NCCc2ccc(Cl)cc2)c1,–,active: 35.5 µM
Cc1ccc(C(=O)/C=C/Nc2cccc(O)c2)cc1,–,"inconclusive [inhibitor, partial curve]"
CCOC(=O)c1sc2nc(C)nc(Nc3ccc(OC)cc3)c2c1C,inactive: -2.6%,–
COc1ccc(NC(=O)CCCn2c(=O)c3sccc3n(Cc3ccccc3C)c2=O)cc1,–,active: 3.98 µM
CN1CCN(C(c2cccs2)c2nnnn2Cc2ccc(F)cc2)CC1 (stereo not drawn),–,"inconclusive [inhibitor, single point]"
c1ccc(CN2CCN(c3ncccn3)CC2)nc1,–,"inconclusive [inhibitor, partial curve]"
